# Results published in paper PMC12040169 (PLOS Biology, 2025).
# Where two headings read alike, the source gives them in different places. This is one part of the list.
# Tested on: T1, C. trachomatis L2/434/Bu expressing GFP (CTL2-GFP)
# T1 construct: L2/434/Bu GFP intracellular growth in HeLa cells
# Parameters: species or system HeLa; C. trachomatis total inclusion area by high-content imaging, normalised to DMSO
# Procedure, shortened: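 Bulk GFP and resorufin signals were read first. Wells were then fixed, stained with Hoechst and imaged to detect GFP inclusions and host nuclei. MICs followed the previously described calculation.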
# [1] = total inclusion area; 28.5 h, 10 µM; inhibitor
Compound,% of control remaining [1],"% of control remaining (total inclusion area, 28.5 h, 10 µM, inhibitor)"
O=C(Nc1cccc(Cl)c1)c1cccc(NC(=O)c2ccccc2C(=O)O)c1 [CBK287122],109.7,–
Cc1oc2ncn(Cc3ccccc3)c(=N)c2c1C [CBK288160],105.732,–
O=C(Nc1ccc(F)cc1)c1ccc(NS(=O)(=O)c2ccc(Br)cc2)cc1 [CBK050400],52.9203,–
COC(=O)C1C=C(NS(=O)(=O)c2ccc(-c3ccnc(SC)n3)s2)C=CC1 (stereo not drawn) [CBK160388],90.3001,–
N=c1n(CCN2CCCCC2)c2ccccc2n1CC(O)COc1ccc(Cl)cc1 (stereo not drawn) [CBK262512C],89.2613,–
CC(O)CNC(=O)C1(c2ccccc2)CCCC1 (stereo not drawn) [CBK149542],126.068,–
O=C(Nc1cccc(O)c1)c1ccc(Br)c(S(=O)(=O)N2CCCCC2)c1 [CBK261736],92.5797,–
O=C(NC(=S)Nc1ccc2c(c1)Cc1ccccc1-2)c1cc([N+](=O)[O-])ccc1N1CCOCC1 [CBK268726],108.098,–
COc1ccc([C@@]23CC[C@@H](N)C[C@@H]2N(C(C)(C)C)CC3)cc1OC [CBK067673],92.4129,–
COc1ccc2c(c1OC)C(=O)N(c1cccc([N+](=O)[O-])c1)C2 [CBK115318],86.4591,–
CCOc1cc(OCC)cc(C(=O)N2CCC3(CC2)CC(=O)c2c(OC)cccc2O3)c1 [CBK168012],118.573,–
COCCNC(=O)CN(C)c1nc2ccccc2[nH]1 [CBK306378],84.567,–
CC(=O)Nc1ccc(-c2cncc(N(C)CCN(C)C)n2)cc1 [CBK065694],162.199,–
O=C(Cn1nc(C(F)(F)F)c2c1CCC2)N1CCN(Cc2ccccc2)CC1 [CBK266113],78.8652,–
CC(=O)NCC1CCCN(Cc2c[nH]nc2-c2c(F)cccc2F)C1 (stereo not drawn) [CBK306382],28.8276,–
O=CNC(Cc1ccc(O)c([N+](=O)[O-])c1)C(=O)O (stereo not drawn) [CBK262421],105.742,–
Cc1cccc(-c2n[nH]c(=S)n2CC(=O)NCc2cn(-c3ccccc3)nc2-c2ccccc2)c1 [CBK297941],86.7036,–
Cc1occc1-c1nnc(NCc2cnn(C)c2C)o1 [CBK304819],82.494,–
Nc1ncc(-c2ccc3c(c2)OCO3)nc1NCc1ccncc1 [CBK063483],111.527,–
CS(=O)(=O)c1ccc(-c2cnc(N)c(NCc3ccncc3)n2)cc1 [CBK063647],82.8138,–
O=C(CSc1nc2ccccc2c(=O)[nH]1)Nc1ccccc1O [CBK269738],119.258,–
O=c1nc(O)c2ccccc2s1 [CBK027968],98.5479,–
C[C@H](c1ccccc1)n1c(=O)[nH]c2ncc(-c3cccc4ncccc34)nc21 [CBK064173],94.5138,–
O=C(NCC1COc2ccccc2O1)c1ccc(-c2ccccc2)nc1NCCc1ccccn1 (stereo not drawn) [CBK076554],88.363,–
O=C(NCCNc1cnccn1)c1cc(Br)ccc1F [CBK253480],54.4623,–
Cc1ncc(CN(CCN(C)C)Cc2cccs2)n1C [CBK282993],97.4818,–

Compound,% of control remaining [1],"% of control remaining (total inclusion area, 28.5 h, 10 µM, inhibitor)"
CC(C)c1ccc(-n2ncc3c(=O)[nH]cnc32)cc1 [CBK288096],55.0696,–
NC1(C(F)(F)F)Oc2cc(Cl)c(Cl)cc2O1 [CBK021805],51.362,–
CC(Oc1cccc(Br)c1)c1nc(-c2ccc(-n3cccc3)cc2)no1 (stereo not drawn) [CBK293986],81.8323,–
CN(C)CCCNC(=S)Nc1ccc(Cl)cc1Cl [CBK264183],108.431,–
O=C(O)c1ccc(CNCc2c(F)cccc2Cl)cc1 [CBK269496C],–,46.9137
Fc1ccc(CCN2CCC(Oc3cncc(OCc4cccnc4)n3)C2)cc1 (stereo not drawn) [CBK084469],71.0494,–
COc1ccc(NC(=O)CSc2nnc(C3CC3)n2C)c(OC)c1 [CBK270303],105.214,–
COCC(=O)NC1CCN(CC2(c3ccccc3F)CCCC2)CC1 [CBK284850],94.4899,–
Cc1c(CN2CCCC2(C)C(=O)NC2CCCC2)cnn1C (stereo not drawn) [CBK281960],86.0911,–
CCCc1ccc(S(=O)(=O)N(c2ccccc2)C2CCNCC2)cc1 [CBK165121T],76.6215,–
COc1ccc(CN2CCC(Oc3nccnc3OCCN3CCOCC3)CC2)cc1 [CBK082922T],72.0859,–
O=c1n(CC2CCCCC2)c2ccccc2n1S(=O)(=O)c1ccc2ccccc2c1 [CBK106527],93.9649,–
O=C(NCc1ccco1)C1CCN(c2nccc(C(F)(F)F)n2)CC1 [CBK028778],12.0264,–
Cc1oc(-c2ccccc2)cc1C(=O)Nc1c(F)cc(F)cc1OC1CCNCC1 [CBK050326T],69.9391,–
Ic1ccc2c3ccc(I)cc3c3[nH]c(-c4ccccc4)nc3c2c1 [CBK261218],122.229,–
Cc1ccc(S(=O)(=O)N(CC(=O)Nc2ccccc2F)c2cc(Cl)ccc2Cl)cc1 [CBK268647],83.9345,–
COc1cccc(NC(=O)c2cnc(-c3ccccc3)c(-c3cccnc3)c2)c1OC [CBK037487],106.668,–
CCN1CCCC(CNS(=O)(=O)c2cc(-n3cccn3)ccc2OC)C1 (stereo not drawn) [CBK306997],15.7454,–
CCOC(=O)CC(=O)COc1nc2cc3c(nc2o1)CCCC3 [CBK269204],101.878,–
Cc1ccc(Cl)cc1N1CCN(C(=O)C2C3C=CC(C3)C2C(=O)O)CC1 (stereo not drawn) [CBK287025],136.126,–
Cc1nn(C)c(C)c1S(=O)(=O)n1ccn(-c2cccc(C(F)(F)F)c2)c1=O [CBK106593],102.703,–
Cc1csc(C(Cc2ccsc2)NC(=O)c2c(C)noc2C)n1 (stereo not drawn) [CBK285045],104.696,–
CCc1nc2ccc(C(=O)Nc3ccc(NC(C)=O)cc3)cn2c1N(C)CC [CBK145483],76.2706,–
COc1ccccc1CN1CCC2(CCCNC2=O)CC1 [CBK284823],111.003,–
Cc1cccn2c(=O)cc(CN3CCn4c(nnc4C4CC4)C3)nc12 [CBK305232],30.8011,–
